Patent US20220267438A1 (Janssen / Centocor, published 2022)

Tests used:
[1] = target: T1, CD3W200, recombinant CD3εγ heterodimer construct (human, UniProt P07766 22-118; P09693 23-103); assay: SPR, CD3 binding, release sample
T1 construct: also called human CD3 (SPR antigen for BGCB491)

[2] = target: T1, CD3W200, recombinant CD3εγ heterodimer …; assay: SPR, CD3 binding after chemical oxidation
[3] = target: T2, human BCMA (B cell maturation antigen, TNFRSF17) on cells (human, UniProt Q02223 1-184); assay: flow cytometry, H929-GPRC5D-KO cells (BCMA arm), 1 h 37C; Run 5
T2 construct: whole, on cells; Target on H929 or MM.1R GPRC5D knockout cells, K562 cells expressing human BCMA, HEK293 cells of the cell microarray, and BCMA-only lymphoma lines; also called CD269; surface BCMA
T2 sequence (looked up): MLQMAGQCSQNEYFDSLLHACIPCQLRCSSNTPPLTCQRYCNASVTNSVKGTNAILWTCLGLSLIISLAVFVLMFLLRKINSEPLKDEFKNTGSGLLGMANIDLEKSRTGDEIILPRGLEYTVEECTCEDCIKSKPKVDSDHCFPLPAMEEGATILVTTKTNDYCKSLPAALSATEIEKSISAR
Method: Flow cytometry was used to evaluate the BCMA and GPRC5D arm binding of BGCB491 in vitro. BGCB491 and isotype control were tested on a panel of H929-WT, H929-BCMA-KO, H929-GPRC5D-KO, and H929-BCMA/GPRC5D-KO cell lines after 1-hour 37° C. incubation.

[4] = target: T3, human CD3 (CD3ε of the TCR/CD3 complex) on primary human pan T cells (human, UniProt P07766); assay: flow cytometry, human pan T cells, Donor 2, 1 h 37C; Run 1
T3 construct: whole, on cells; On T cells CD3ε stands in the whole TCR/CD3 complex
Method: (§1) For binding of BGCB463 to human and cynomolgus Pan T cells, three human donors (Hemacare) were selected, quickly thawed, resuspended, and aliquoted into a 96-well plate at 1×10⁶ cells/mL. Cells were then washed, Fc blocked if necessary (Innovex), and stained with viability dye (Invitrogen). BGCB463 and its corresponding isotype (B23B251) were diluted in complete media to an initial concentration of 2 μM and 1:3 serial dilutions in duplicate were performed for a dose-response curve. The cells were incubated with molecules at 4° C. or 37° C. for 1 hour. When necessary, incubation with 90% human serum (Sigma) was also performed as described above.
(§2) First, FACS-based binding for GPRC5D and BCMA binding arms of the trispecific molecule was determined by measuring the effective concentration (EC) range from a dose-response curve using a 4-parameter fit at 37° C. for 1 hr. This was assessed using an H929 suite of cells (WT, GPRC5D-KO, BCMA-KO, and GPRC5D/BCMA KO), and a similar MM.1R suite. Cell based EC₅₀ is approximately 13 nM for WT H929 (FIGS. 2A-2D, Table 7) and 2.4 nM for WT MM.1R (FIGS. 3A-3D, Table 8). […] Next, cell-based EC₅₀ was determined for the CD3-binding Fab arm using purified Pan T cells from three random donors. […] Next, dose responsive binding was assessed at 4° C. to remove any potential biological effects. […]

[5] = target: T3, human CD3 (CD3ε of the TCR/CD3 complex) …; assay: flow cytometry, human pan T cells, 1 h 37C; total average of three donors
Method: as §1, §2

[6] = target: T2, human BCMA (B cell maturation antigen, …); assay: flow cytometry, MM.1R GPRC5D KO cells, 1 h 37C; Run 3
Method: (§3) First, FACS-based binding for GPRC5D and BCMA binding arms of the trispecific molecule was determined by measuring the effective concentration (EC) range from a dose-response curve using a 4-parameter fit at 37° C. for 1 hr. This was assessed using an H929 suite of cells (WT, GPRC5D-KO, BCMA-KO, and GPRC5D/BCMA KO), and a similar MM.1R suite. Cell based EC₅₀ is approximately 13 nM for WT H929 (FIGS. 2A-2D, Table 7) and 2.4 nM for WT MM.1R (FIGS. 3A-3D, Table 8). A clear avidity affect is observed as EC₅₀ and Bmax are both reduced in GPRC5D-KO and BCMA-KO lines which test monovalent binding of target binding arms (Table 7). Next, cell-based EC₅₀ was determined for the CD3-binding Fab arm using purified Pan T cells from three random donors. […] Next, dose responsive binding was assessed at 4° C. to remove any potential biological effects. As shown in FIGS. 5A-5C, binding is stronger (50-100 nM) at 4° C., compared to 37° C., which may indicate internalization. Additionally, two expression lots of BGCB463 (BGCB463.003 from transient transfection and BGCB463.004 from a stable transfection pool), were directly compared with binding to H929, MM.1R, and Pan T cells and no differences were noted (FIGS. 6A-6C).

[7] = target: T3, human CD3 (CD3ε of the TCR/CD3 complex) …; assay: flow cytometry on Pan T cells, donor D329335, 1 hr at 37 C, AF647 secondary detection
Method: as §1, §2

[8] = target: T3, human CD3 (CD3ε of the TCR/CD3 complex) …; assay: flow cytometry, human pan T cells, Donor 2, 1 h 37C; Run 3
Method: as §1, §2

[9] = target: T3, human CD3 (CD3ε of the TCR/CD3 complex) …; assay: flow cytometry, human pan T cells, Donor 1, 1 h 37C; Run 3
Method: as §1, §2

[10] = target: T2, human BCMA (B cell maturation antigen, …); assay: flow cytometry, H929 GPRC5D KO cells, 1 h 37C; Run 3
Method: as §3

[11] = target: T4, cynomolgus GPRC5D on K562 cells (cynomolgus monkey); assay: flow cytometry on K562 cells expressing cynomolgus GPRC5D, 1 hr 37 C, Run 2
T4 construct: whole, on cells; also called cyno GPRC5D
Method: FIGS. 9A-E. BGCB463 (circles) or negative control B23B251 (triangles) were all incubated with K562 cells expressing human GPRC5D (FIG. 9A), human BCMA (FIG. 9B), cynomolgus GPRC5D (FIG. 9C) or cynomolgus BCMA (FIG. 9D) for 1 hr at 37° C. at a starting concentration of 2 μM. After secondary detection with AF647-anti-human IgG, the MFI signal was analyzed to generate an EC₅₀ and EC₉₀ (FIG. 9E). Data are representative of two independent experiments.
The GPRC5D (i.e., GC5B680) and BCMA binding arms were assessed for cross-reactivity to cynomolgus monkey as part of the BGCB463 molecule, which uses the identical binding arms as BGCB491. Cross reactivity to cynomolgus monkeys was profiled for both target-binding scFv arms using FACS-based cell binding at 37° C. for 1 hour with K562 stably expressing human or cynomolgus monkey GPRC5D or BCMA. The cell-based EC₅₀ value for the GC5B680 scFv arm was approximately 30 nM against human GPRC5D-expressing cells and about 10-fold weaker (approximately 400 nM) on cynomolgus monkey GPRC5D-expressing cells.

B1: BGCB491 (other)
heavy: QVQLQQSGPRLVRPSQTLSLTCAISGDSVFNNNAAWSWIRQSPSRGLEWLGRTYYRSKWLYDYAVSVKSRITVNPDTSRNQFTLQLNSVTPEDTALYYCARGYSSSFDYWGQGTLVTVSSASTKGPSVFPLAPSSKSTSGGTAALGCLVKDYFPEPVTVSWNSGALTSGVHTFPAVLQSSGLYSLSSVVTVPSSSLGTQTYICNVNHKPSNTKVDKKVEPKSCDKTHTCPPCPAPEAAGGPSVFLFPPKPKDTLMISRTPEVTCVVVSVSHEDPEVKFNWYVDGVEVHNAKTKPREEQYNSTYRVVSVLTVLHQDWLNGKEYKCKVSNKALPAPIEKTISKAKGQPREPQVYTLPPSREEMTKNQVSLSCAVKGFYPSDIAVEWESNGQPENNYKTTPPVLDSDGSFFLVSKLTVDKSRWQQGNVFSCSVMHEALHNRFTQKSLSLSPGKGGGGSGGGGSGGGGSGGGGS[letters of about 100 residues not shown]QFPHTFGQGTKLEIKGGSEGKSSGSGSESKSTGGSQVTLKESGPVLVKPTETLTLTCTVSGFSLTNIRMSVSWIRQPPGKALEWLAHIFSNDEKSYSTSLKSRLTISRDTSKSQVVLTLTNVDPVDTATYYCARMRLPYGMDVWGQGTTVTVSS
light: QSALTQPASVSGSPGQSITISCTGTSSNIGTYKFVSWYQQHPDKAPKVLLYEVSKRPSGVSSRFSGSKSGNTASLTISGLQAEDQADYHCVSYAGSGTLLFGGGTKLTVLGQPKAAPSVTLFPPSSEELQANKATLVCLISDFYPGAVTVAWKADSSPVKAGVETTTPSKQSNNKYAASSYLSLTPEQWKSHRSYSCQVTHEGSTVEKTVAPTECS
chain: EIVLTQSPGTLSLSPGERATLSCRASQSISSSFLTWYQQKPGQAPRLLIYGASSRATGIPDRFSGGGSGTDFTLTISRLEPEDFAVYYCQHYGSSPMYTFGQGTKLEIKGGSEGKSSGSGSESKSTGGS[letters of about 100 residues not shown]DEGYSSGHYYGMDVWGQGTTVTVSSEPKSSDKTHTCPPCPAPEAAGGPSVFLFPPKPKDTLMISRTPEVTCVVVSVSHEDPEVKFNWYVDGVEVHNAKTKPREEQYNSTYRVVSVLTVLHQDWLNGKEYKCKVSNKALPAPIEKTISKAKGQPREPQVYTLPPSREEMTKNQVSLWCLVKGFYPSDIAVEWESNGQPENNYKTTPPVLDSDGSFFLYSKLTVDKSRWQQGNVFSCSVMHEALHNHYTQKSLSLSPGK
notes: Trispecific IgG1 antibody (L234A, L235A, D265S); Heavy chain 1 = anti-CD3 (CD3B376) Fab heavy chain, hole and RF mutations, with C-terminal anti-GPRC5D scFv (GC5B680); Heavy chain 2 = anti-BCMA scFv (BCMB519) - Fc knob; also called JNJ-79635322; BCMA×GPRC5D×CD3 trispecific mAb
[1]
  Kd: 25.1 nM
[2]
  Kd: 22.7 nM
[3]
  EC50: 53 nM

B2: BGCB463 (other)
heavy: QVQLQQSGPRLVRPSQTLSLTCAISGDSVFNNNAAWSWIRQSPSRGLEWLGRTYYRSKWLYDYAVSVKSRITVNPDTSRNQFTLQLNSVTPEDTALYYCARGYSSSFDYWGQGTLVTVSSASTKGPSVFPLAPSSKSTSGGTAALGCLVKDYFPEPVTVSWNSGALTSGVHTFPAVLQSSGLYSLSSVVTVPSSSLGTQTYICNVNHKPSNTKVDKKVEPKSCDKTHTCPPCPAPEAAGGPSVFLFPPKPKDTLMISRTPEVTCVVVSVSHEDPEVKFNWYVDGVEVHNAKTKPREEQYNSTYRVVSVLTVLHQDWLNGKEYKCKVSNKALPAPIEKTISKAKGQPREPQVYTLPPSREEMTKNQVSLSCAVKGFYPSDIAVEWESNGQPENNYKTTPPVLDSDGSFFLVSKLTVDKSRWQQGNVFSCSVMHEALHNRFTQKSLSLSPGK
light: QSALTQPASVSGSPGQSITISCTGTSSNIGTYKFVSWYQQHPDKAPKVLLYEVSKRPSGVSSRFSGSKSGNTASLTISGLQAEDQADYHCVSYAGSGTLLFGGGTKLTVLGQPKAAPSVTLFPPSSEELQANKATLVCLISDFYPGAVTVAWKADSSPVKAGVETTTPSKQSNNKYAASSYLSLTPEQWKSHRSYSCQVTHEGSTVEKTVAPTECS
chain: [letters of about 100 residues not shown]QFPHTFGQGTKLEIKGGSEGKSSGSGSESKSTGGSQVTLKESGPVLVKPTETLTLTCTVSGFSLTNIRMSVSWIRQPPGKALEWLAHIFSNDEKSYSTSLKSRLTISRDTSKSQVVLTLTNVDPVDTATYYCARMRLPYGMDVWGQGTTVTVSSEPKSSDKTHTCPPCPAPEAAGGPSVFLFPPKPKDTLMISRTPEVTCVVVSVSHEDPEVKFNWYVDGVEVHNAKTKPREEQYNSTYRVVSVLTVLHQDWLNGKEYKCKVSNKALPAPIEKTISKAKGQPREPQVYTLPPSREEMTKNQVSLWCLVKGFYPSDIAVEWESNGQPENNYKTTPPVLDSDGSFFLYSKLTVDKSRWQQGNVFSCSVMHEALHNHYTQKSLSLSPGKGGSEGKSSGSGSESKSTGGSEIVLTQSPGTLSLSPGERATLSCRASQSISSSFLTWYQQKPGQAPRLLIYGASSRATGIPDRFSGGGSGTDFTLTISRLEPEDFAVYYCQHYGSSPMYTFGQGTKLEIKGGSEGKSSGSGSESKSTGGS[letters of about 100 residues not shown]DEGYSSGHYYGMDVWGQGTTVTVSS
notes: Trispecific IgG1 antibody (L234A, L235A, D265S); Heavy chain 1 = anti-CD3 (CD3B376) Fab heavy chain with hole and RF mutations; also called BGCB463.003; BGCB463.004
[4]
  EC50: 572 nM
[5]
  EC50: 329 nM
[6]
  EC50: 142 nM
[7]
  EC50 (read off the curve): ~100 nM
[8]
  EC50: 262 nM
[9]
  EC50: 293 nM
[10]
  EC50: 221 nM
[11]
  EC50: 310 nM
